Whole data set: some 81,000 sequences, median “one-hybrid fitness for binding NBS DNA” near -0.1, cut for the highest 2% near 0.36. The list shows a part of the results.
B1: Caulobacter ParB omega fusion; a variant is named by its letters at X, in order, B8GW30 (parent)
chain: MESVVVGEPGMSEGRRGLGRGLSALLGEVDAAPAQAPGEQLGGSREAPIEILQRNPDQPRRTFREEDLEDLSNSIREKGVLQPILVRPSPDTAGEYQIVAGERAWRAAQRAGLKTVPIMVRELDDLAVLEIGIIENVQRADLNVLEEALSYKVLMEKFERTQENIAQTIGKSXSHVANXMRLLXLPDEVQSYLVSGELTAXHARAIAAAADPVALAKQIIEGGLSVRETEALARKAPNLSAGKSKGGRPPRVKDTDTQALESDLSSVLGLDVSIDHRGSTGTLTITYATLEQLDDLCNRLTRGI

Variants of: B1
Assay: one-hybrid fitness for binding NBS DNA (the Noc-binding site; scaled: cognate 1, non-cognate 0); higher = stronger binding
Conditions: with NBS DNA site
In short: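 In E. coli USO, a HIS3 reporter with its site placed 19 bp from the promoter was used to select Caulobacter ParB variants randomised at four specificity codons. Growth lasted 48 hours at 37°C on histidine-free M9 containing 0.1 mM IPTG and 5 mM 3-AT. Fitness was taken as the log change in variant-to-wild-type read ratio from Illumina sequencing of pre- and post-selection plasmids, rescaled between the non-cognate and cognate sites.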

Variant	one-hybrid fitness for binding NBS DNA
CKVR	≤ 0.2
NRPF	≤ 0.2
LRTY	≤ 0.2
SRQI	≤ 0.2
PRIS	≤ 0.2
WLQS	≤ 0.2
NRPT	≤ 0.2
SCRL	≤ 0.2
GHHM	≤ 0.2
PHCV	≤ 0.2
KNDR	≤ 0.2
VNHS	≤ 0.2
TLNV	≤ 0.2
SLSL	≤ 0.2
YSKS	≤ 0.2
GLLS	≤ 0.2
SIHS	≤ 0.2
KRLY	≤ 0.2
RVRF	≤ 0.2
HIYV	≤ 0.2
DSNH	≤ 0.2
ADLK	≤ 0.2
VENL	≤ 0.2
IKSN	≤ 0.2
NAFR	≤ 0.2

Variant	one-hybrid fitness for binding NBS DNA
QLKG	0.245
TVKP	≤ 0.2
PFKR	0.261
CHHG	≤ 0.2
WQNY	≤ 0.2
THRT	≤ 0.2
YRQT	≤ 0.2
EKSV	≤ 0.2
YRER	≤ 0.2
HALE	≤ 0.2
AINC	≤ 0.2
SRPG	≤ 0.2
WYFG	≤ 0.2
HIFI	≤ 0.2
GTAF	≤ 0.2
TLLS	≤ 0.2
QRPL	≤ 0.2
GGSR	≤ 0.2
CPPN	≤ 0.2
RPHI	≤ 0.2
KMFC	≤ 0.2
EPAI	≤ 0.2
LLNH	≤ 0.2
FQPG	≤ 0.2
GQLM	≤ 0.2

Variant	one-hybrid fitness for binding NBS DNA
YVIG	≤ 0.2
NPWT	≤ 0.2
RHLA	≤ 0.2
FAHW	≤ 0.2
RTPW	≤ 0.2
SMDR	≤ 0.2
YARG	≤ 0.2
WENG	≤ 0.2
LEMS	≤ 0.2
TCWW	≤ 0.2
RRQQ	0.268
NPFC	≤ 0.2
TNFL	≤ 0.2
HIIS	≤ 0.2
PYWA	≤ 0.2
AHPS	≤ 0.2
QRWC	0.332
RQKL	≤ 0.2
GNKG	≤ 0.2
EMGL	≤ 0.2
QADC	≤ 0.2
LEEI	≤ 0.2
QIAY	≤ 0.2
MLNT	≤ 0.2
ADPA	≤ 0.2

Variant	one-hybrid fitness for binding NBS DNA
RPDR	≤ 0.2
TWCM	≤ 0.2
RDQN	≤ 0.2
QSRP	0.242
RDKN	≤ 0.2
RNWR	≤ 0.2
SKWD	≤ 0.2
GSQA	≤ 0.2
WCSK	≤ 0.2
VCPR	≤ 0.2
VCKR	0.228
LNGM	≤ 0.2
SLNT	≤ 0.2
TQLK	≤ 0.2
DDPC	≤ 0.2
PETG	≤ 0.2
CARM	≤ 0.2
RGTY	≤ 0.2
RKRT	0.676
HGEV	≤ 0.2
FRVC	≤ 0.2
TDRQ	≤ 0.2
WTPS	≤ 0.2
DLDM	≤ 0.2
RPLW	≤ 0.2

Variant	one-hybrid fitness for binding NBS DNA
ERSM	≤ 0.2
QSHD	≤ 0.2
MWAY	≤ 0.2
RWLV	≤ 0.2
YKYS	≤ 0.2
KEGY	≤ 0.2
RSSW	≤ 0.2
PSLD	≤ 0.2
TTAH	≤ 0.2
QELD	≤ 0.2
TTFD	≤ 0.2
YNTM	≤ 0.2
SGSF	≤ 0.2
LAEL	≤ 0.2
PMLG	≤ 0.2
LHVS	≤ 0.2
ATVH	≤ 0.2
RAGW	≤ 0.2
LQHC	≤ 0.2
QQHM	≤ 0.2
RFPL	≤ 0.2
WIDC	≤ 0.2
QQDY	≤ 0.2
PRET	≤ 0.2
QCKT	0.778

Variant	one-hybrid fitness for binding NBS DNA
LPCG	≤ 0.2
QKDW	≤ 0.2
WAWT	≤ 0.2
GSKV	≤ 0.2
TCQT	≤ 0.2
AQKD	≤ 0.2
PNRV	≤ 0.2
VHGR	≤ 0.2
KFVG	≤ 0.2
QWTC	≤ 0.2
TDET	≤ 0.2
NCDR	≤ 0.2
AGLK	≤ 0.2
QLET	≤ 0.2
KCHV	≤ 0.2
ACYM	≤ 0.2
WDLS	≤ 0.2
RCYN	≤ 0.2
MRNG	≤ 0.2
HICG	≤ 0.2
IVHG	≤ 0.2
CCAT	≤ 0.2
EHFR	≤ 0.2
GLLI	≤ 0.2
AQNR	≤ 0.2

Variant	one-hybrid fitness for binding NBS DNA
VVYP	≤ 0.2
YCDS	≤ 0.2
DDHR	≤ 0.2
EELT	≤ 0.2
VDYR	≤ 0.2
VMNN	≤ 0.2
TSAM	≤ 0.2
DYAI	≤ 0.2
RPPS	≤ 0.2
RQAF	≤ 0.2
PMTA	≤ 0.2
AYTN	≤ 0.2
QKGC	≤ 0.2
ANAQ	≤ 0.2
MDSG	≤ 0.2
LQNH	≤ 0.2
PFWR	≤ 0.2
TVTI	≤ 0.2
GTCR	≤ 0.2
AHHE	≤ 0.2
PCTW	≤ 0.2
WPSR	≤ 0.2
QAKP	≤ 0.2
RMPV	≤ 0.2
QINY	≤ 0.2

Variant	one-hybrid fitness for binding NBS DNA
PAHT	≤ 0.2
KLVR	≤ 0.2
CYGR	≤ 0.2
EMLQ	≤ 0.2
PSCK	≤ 0.2
LQAY	≤ 0.2
PNFT	≤ 0.2
TAPP	≤ 0.2
PWNY	≤ 0.2
TAPI	≤ 0.2
AIPW	≤ 0.2
RIMY	≤ 0.2
MVCD	≤ 0.2
PVMN	≤ 0.2
VSKH	≤ 0.2
VRGM	≤ 0.2
SRPP	≤ 0.2
PHNW	≤ 0.2
QIDG	≤ 0.2
TTRL	≤ 0.2
